# Reference: PubChem BioAssay AID504333 (National Center for Advancing Translational Sciences (NCATS), 2011)
# Screen size: about 360,000 compounds; about 16,000 (4.4%) were called active. Inconclusive results, whose numbers are uncertain, are shown with a selection of clear calls. Calls come from the whole dose curve; as a rule, active = well fitted inhibition curve with a large enough effect; inconclusive = small, poorly fitted or top-dose-only effect; inactive = no such curve, though single readings can be large or run the other way. Where the call is inconclusive, the potency comes from a doubtful curve fit.
# Target: Bromodomain adjacent to zinc finger domain protein 2B (Homo sapiens) (UniProt Q9UIF8)
# UniProt Q9UIF8, sequence (Q9UIF8 whole entry, looked up, the tested form may be a part): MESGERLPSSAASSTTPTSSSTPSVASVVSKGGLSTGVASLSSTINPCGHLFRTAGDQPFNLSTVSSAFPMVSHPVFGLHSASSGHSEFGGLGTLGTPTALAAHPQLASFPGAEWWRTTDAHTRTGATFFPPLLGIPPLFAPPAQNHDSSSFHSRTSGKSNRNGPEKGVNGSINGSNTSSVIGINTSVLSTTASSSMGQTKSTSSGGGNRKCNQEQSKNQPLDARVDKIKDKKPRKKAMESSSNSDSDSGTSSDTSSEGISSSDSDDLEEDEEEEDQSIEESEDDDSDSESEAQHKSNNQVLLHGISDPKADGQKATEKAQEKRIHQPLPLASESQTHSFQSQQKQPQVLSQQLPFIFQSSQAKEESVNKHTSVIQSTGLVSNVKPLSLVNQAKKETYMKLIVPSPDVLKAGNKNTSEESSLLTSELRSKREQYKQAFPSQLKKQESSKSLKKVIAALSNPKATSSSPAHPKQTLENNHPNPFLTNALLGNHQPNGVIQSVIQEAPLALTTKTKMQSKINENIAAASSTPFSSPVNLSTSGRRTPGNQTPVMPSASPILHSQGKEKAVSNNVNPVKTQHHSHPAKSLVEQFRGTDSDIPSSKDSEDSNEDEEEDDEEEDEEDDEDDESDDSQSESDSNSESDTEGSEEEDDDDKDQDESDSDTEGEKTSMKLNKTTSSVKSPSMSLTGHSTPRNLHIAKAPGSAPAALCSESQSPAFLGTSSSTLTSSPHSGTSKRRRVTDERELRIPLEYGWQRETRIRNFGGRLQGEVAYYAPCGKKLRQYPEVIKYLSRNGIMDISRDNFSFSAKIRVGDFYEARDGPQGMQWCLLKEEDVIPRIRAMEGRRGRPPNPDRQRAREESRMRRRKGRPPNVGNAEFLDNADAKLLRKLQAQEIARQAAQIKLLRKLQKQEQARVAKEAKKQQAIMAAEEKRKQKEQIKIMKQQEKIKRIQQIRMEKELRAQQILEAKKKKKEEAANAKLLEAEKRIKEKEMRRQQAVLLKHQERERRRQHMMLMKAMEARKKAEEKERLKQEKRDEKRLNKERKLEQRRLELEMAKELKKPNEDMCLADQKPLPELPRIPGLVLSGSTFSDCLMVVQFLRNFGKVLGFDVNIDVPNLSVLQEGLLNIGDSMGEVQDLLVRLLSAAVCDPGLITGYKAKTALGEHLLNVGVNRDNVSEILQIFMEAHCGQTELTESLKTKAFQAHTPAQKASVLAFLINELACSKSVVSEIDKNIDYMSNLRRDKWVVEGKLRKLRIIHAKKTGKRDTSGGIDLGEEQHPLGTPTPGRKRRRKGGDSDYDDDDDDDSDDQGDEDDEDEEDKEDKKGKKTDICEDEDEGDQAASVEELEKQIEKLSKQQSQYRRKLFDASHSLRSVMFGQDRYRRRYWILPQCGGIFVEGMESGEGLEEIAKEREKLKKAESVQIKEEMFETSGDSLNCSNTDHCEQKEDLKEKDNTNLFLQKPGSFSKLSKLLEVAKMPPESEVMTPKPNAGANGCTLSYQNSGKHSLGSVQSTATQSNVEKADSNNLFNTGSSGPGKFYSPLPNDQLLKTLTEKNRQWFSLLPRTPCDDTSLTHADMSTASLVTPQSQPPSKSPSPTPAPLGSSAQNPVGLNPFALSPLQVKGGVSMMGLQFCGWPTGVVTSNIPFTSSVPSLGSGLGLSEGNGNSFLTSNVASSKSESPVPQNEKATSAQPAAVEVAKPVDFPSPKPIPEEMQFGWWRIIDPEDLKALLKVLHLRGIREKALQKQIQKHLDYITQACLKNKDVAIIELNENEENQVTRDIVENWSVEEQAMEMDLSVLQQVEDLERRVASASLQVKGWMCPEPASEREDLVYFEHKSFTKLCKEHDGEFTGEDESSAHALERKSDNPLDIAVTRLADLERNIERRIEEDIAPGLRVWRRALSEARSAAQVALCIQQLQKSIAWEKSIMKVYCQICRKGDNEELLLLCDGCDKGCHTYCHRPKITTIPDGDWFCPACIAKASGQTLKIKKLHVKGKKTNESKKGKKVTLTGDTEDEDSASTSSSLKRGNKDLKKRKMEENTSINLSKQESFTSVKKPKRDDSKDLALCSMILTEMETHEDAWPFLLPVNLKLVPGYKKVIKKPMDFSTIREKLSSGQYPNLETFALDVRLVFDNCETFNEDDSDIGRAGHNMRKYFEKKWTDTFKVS
# Assay: qHTS Assay for Inhibitors of BAZ2B; note: nearly all actives have a fitted effect of over 60% in size
# Details: AlphaScreen BAZ2B-H3K14Ac peptide displacement; series mostly up to 114 µM
# In short: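 AlphaScreen displacement: compounds (up to 110uM) incubated 30 min at room temperature with a preformed 50 nM BAZ2B/50 nM biotinylated H3K14Ac peptide complex in PBS pH 7.4 with Tween-20. Donor and acceptor beads at 10 ug/mL final added, 20 min light-protected before reading.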
# Potency is the fitted concentration of half-maximal effect; tags give direction and shape of the fitted curve.
row,Compound,Potency
1,C=CCn1c(C)cc(C(=O)CSc2nc3ccccc3o2)c1C,"inconclusive: 56.2 µM [inhibitor, partial curve]"
2,O=C(Nc1ccc(N2CCN(C(=O)c3cccs3)CC2)cc1)c1ccc([N+](=O)[O-])o1,"inconclusive: 44.7 µM [inhibitor, partial curve]"
3,COc1ccc(N2CCN(C(=O)c3oc4ccccc4c3NC(=O)Cc3cccc(OC)c3)CC2)cc1,"inconclusive: 12.6 µM [inhibitor, partial curve]"
4,Nc1nc2c(c(=O)[nH]1)C(c1ccccc1)C1=C(N2)c2ccccc2C1=O (stereo not given),"inconclusive: 89.1 µM [inhibitor, single point]"
5,CN(c1ccccc1)S(=O)(=O)c1ccc(C(=O)OCC(=O)NCc2ccco2)cc1,"inconclusive: 79.4 µM [inhibitor, single point]"
6,CCCCCC(O)(CCN1CCCCC1)c1ccc(OCC)cc1 (stereo not given),inactive
7,C/C(=N\NC(=O)C1COc2ccccc2O1)c1ccccn1 (stereo not given),active: 25.1 µM
8,COc1cccc(NC(=O)CSc2nc3n[nH]c(C)c3c(=N)n2-c2cccc(OC)c2)c1,"inconclusive: 89.1 µM [inhibitor, single point]"
9,O=C/C=C/c1c(-c2ccccc2)cc2oc3ccccc3cc1-2,active: 3.55 µM
10,COCCCn1c(=S)[nH]c2sc3c(c2c1=O)CCCS3,"inconclusive: 44.7 µM [inhibitor, partial curve]"
11,O=C(NCCc1ccc(Cl)cc1)c1ccc(Cn2c(=O)c3cccn3c3cccnc32)cc1,"inconclusive: 89.1 µM [inhibitor, single point]"
12,c1csc(C2=NC(c3ccncc3)=Nc3ccccc3N2)c1,"inconclusive: 50.1 µM [inhibitor, partial curve]"
13,COc1cccc(/C(O)=C2/C(=O)C(=O)N(Cc3ccco3)C2c2ccncc2)c1 (stereo not given),"inconclusive: 89.1 µM [inhibitor, single point]"
14,O=C(CCNC(=O)c1ccc(Cl)cc1)Nc1ncccc1O,active: 79.4 µM
15,O=C(c1ccco1)N1CCN(C2c3ccccc3-c3ccccc32)CC1,"inconclusive: 39.8 µM [inhibitor, partial curve]"
16,O=C(COC(=O)c1ccc(F)cc1F)NC(=O)Nc1ccc2c(c1)OCCO2,inactive
17,Cc1ccc(-n2ncc(C(=O)NCCCN3CCN(c4cccc(Cl)c4)CC3)c2-n2cccc2)cc1,"inconclusive: 44.7 µM [inhibitor, partial curve]"
18,Oc1ccccc1NCC(O)Cn1ccc2ccccc21 (stereo not given),active: 50.1 µM
19,O=C(COC(=O)Cc1ccc(Cl)c(Cl)c1)NCc1ccco1,"inconclusive: 100 µM [inhibitor, single point]"
20,COc1ccc(C(=O)Nc2sc(C)c(C)c2CN2CC(C)OC(C)C2)cc1 (stereo not given),inactive
21,Cc1ccc(CNc2nc3ccccc3c3nc(-c4cccc(C)c4)nn23)cc1,inactive
22,Cn1nnc2sc3c(c2c1=O)CCCC3,"inconclusive: 89.1 µM [inhibitor, single point]"
23,Cn1c(=O)n(C)c2cc(/C=C3/SC(=O)N(CC(=O)N4CCOCC4)C3=O)ccc21,active: 50.1 µM
24,COc1ccc(/C=C/C(=O)c2ccccc2)cc1Cn1nnc2ccccc21,"inconclusive: 56.2 µM [inhibitor, single point]"
25,Cc1cc(OC(=O)c2cccc(Br)c2)c([N+](=O)[O-])c(=O)[nH]1,"inconclusive: 100 µM [inhibitor, single point]"

row,Compound,Potency
1,CCCCC(=O)Nc1ccc(C(=O)N(CC)c2ccccc2C)cc1,"inconclusive: 89.1 µM [inhibitor, single point]"
2,O=C(c1ccc2c(c1)OCCO2)N(Cc1cccnc1)c1nc2c(F)cccc2s1,inactive
3,CN(C1CCCC1)C1CCN(C(=O)CNC(=O)/C=C/c2ccccc2)CC1,inactive
4,Cc1ccc(C)c(C(=O)Nc2ccncc2)c1,inactive
5,COc1cccc(N2CC(C(=O)Nc3c(C)cccc3C)CC2=O)c1 (stereo not given),inactive
6,COC(=O)c1ccc(C2C(C(=O)c3cc4ccccc4o3)=C(O)C(=O)N2CCCN(C)C)cc1 (stereo not given),"inconclusive: 70.8 µM [inhibitor, single point]"
7,COc1ccc(CNC(=O)c2c(C)oc3c2C(=O)c2ccccc2C3=O)cc1,active: 7.94 µM
8,COc1ccc(NS(=O)(=O)c2cc(Br)cc3c2N(C(C)=O)CC3)cc1,inactive
9,O=C(NCCCCCCNC(=O)c1cncc(O)c1)c1cncc(O)c1,active: 50.1 µM
10,CCn1ccnc1CN1CCCC(C(=O)c2ccc3c4c(cccc24)CC3)C1 (stereo not given),active: 50.1 µM
11,Cc1cccc(N2CCN(C(=O)COc3cc(=O)n(C)c4ccccc34)CC2)c1C,"inconclusive: 79.4 µM [inhibitor, single point]"
12,Cc1cccc(CNC(=O)C2CCN(c3nnc(-n4c(C)ccc4C)s3)CC2)c1,inactive
13,COc1ccc(Cl)cc1NC(=O)CCS(=O)(=O)c1ccc(Br)cc1,active: 8.91 µM
14,Nc1cc(N)nc(SCC(=O)Nc2ccccc2)n1,inactive
15,COc1cc2ccccc2c2c1CCCC2=O,inactive
16,CC(=O)C1=C(C)NC(SCC(=O)c2ccccc2)=C(C#N)C1CC(C)C (stereo not given),"inconclusive: 89.1 µM [inhibitor, single point]"
17,Cc1ccccc1NC(=O)/C(C#N)=C\c1cc(C)n(-c2ccc(C(=O)O)cc2)c1C,"inconclusive: 79.4 µM [inhibitor, single point]"
18,COc1ccc(Nc2ccc(N3C(=O)CCCC3=O)cc2[N+](=O)[O-])cc1OC,"inconclusive: 44.7 µM [inhibitor, partial curve]"
19,CCn1c(SCC(=O)NC(C)(C)C)nnc1-c1ccccn1,"inconclusive: 89.1 µM [inhibitor, single point]"
20,CCOC(=O)c1c(C)n(CC(O)c2ccccc2)c2ccc(O)cc12 (stereo not given),"inconclusive: 39.8 µM [inhibitor, partial curve]"
21,Cc1c(CNCCc2ccc(Cl)cc2)c(C(=O)O)c(C)n1Cc1ccccc1,"inconclusive: 50.1 µM [inhibitor, partial curve]"
22,O=C(Nc1ccsc1C(=O)O)c1ccccc1Cl,inactive
23,COc1ccc(S(=O)(=O)NCCc2c[nH]c3ccc(C)cc23)cc1,"inconclusive: 44.7 µM [inhibitor, partial curve]"
24,O=C(COC(=O)c1cnccn1)c1cccc([N+](=O)[O-])c1,"inconclusive: 89.1 µM [inhibitor, single point]"
25,CCOC(=O)/C(N=Nc1sc(C(=O)OC)c(C)c1C(=O)OCC)=C(\O)CCl,"inconclusive: 79.4 µM [inhibitor, single point]"

row,Compound,Potency
1,COc1cc(CN2CCN(C(=O)CC(C)C)CC2)c([N+](=O)[O-])cc1OC,active: 44.7 µM
2,CC(=O)c1c(C)nc(-c2ccc(Cl)cc2)nc1N=CN(C)C,active: 79.4 µM
3,COc1ccccc1NC(=O)c1c(NCc2ccc(C)o2)sc2c1CCC(C)C2 (stereo not given),inactive
4,COc1cc(C2N(C)C(=O)c3ccccc3N2C)ccc1O (stereo not given),"inconclusive: 89.1 µM [inhibitor, single point]"
5,COc1ccccc1C(=O)n1nc(-c2ccco2)nc1NCc1ccc(Cl)cc1,"inconclusive: 25.1 µM [inhibitor, full curve]"
6,CC1=CS(=O)(=O)CC1Sc1nc2ccccc2[nH]1 (stereo not given),"inconclusive: 89.1 µM [inhibitor, single point]"
7,COc1ccc(/C=C2\SC(=S)N(C(Cc3ccccc3)C(=O)O)C2=O)cc1 (stereo not given),active: 39.8 µM
8,CCCn1c(C(O)c2cc(OC)c(OC)c(OC)c2)nc2ccccc21 (stereo not given),"inconclusive: 89.1 µM [inhibitor, single point]"
9,Cn1cccc1/C=C(/C#N)C(N)=S,"inconclusive: 89.1 µM [inhibitor, single point]"
10,O=C(CSc1nc2ccccc2[nH]1)Nc1ccc(N2CCOCC2)cc1,"inconclusive: 70.8 µM [inhibitor, partial curve]"
11,CN(NS(=O)(=O)c1ccc(F)cc1)c1ncc(C(F)(F)F)cc1Cl,"inconclusive: 79.4 µM [inhibitor, partial curve]"
12,Cc1ccc(-c2csc(=Nc3ccccc3)n2Cc2ccc3c(c2)OCO3)cc1C,active: 100 µM
13,COc1ccc(N2C(=S)NC(C)(C)CC2(C)c2ccc(OC(C)=O)cc2OC(C)=O)cc1 (stereo not given),"inconclusive: 79.4 µM [inhibitor, single point]"
14,O=C(c1cccs1)N1CCN(c2nc3c(F)cc(F)cc3s2)CC1,"inconclusive: 89.1 µM [inhibitor, single point]"
15,O=c1c2ccccc2nc2n1CCC2,active: 14.1 µM
16,CSc1nsc(/C=C/Nc2ccc(F)cc2F)c1C#N,"inconclusive: 44.7 µM [inhibitor, partial curve]"
17,COc1ccccc1Nc1nc(N)nc(CN2CCOCC2)n1,active: 56.2 µM
18,O=C(NNc1ccc(Cl)cc1)c1cccs1,inactive
19,O=c1[nH]c2ccc(NCc3ccccc3OCc3ccc(Cl)cc3)cc2[nH]1,active: 22.4 µM
20,CCOc1cc(N2CCOCC2)c(OCC)cc1NC(=O)c1c(-c2ccccc2Cl)noc1C,active: 39.8 µM
21,CC(C(=O)Nc1ccc(S(N)(=O)=O)cc1)N1CCc2ccccc21 (stereo not given),inactive
22,Cc1cccc(OC(=O)c2cc(-c3ccc4c(c3)OCCO4)on2)c1,inactive
23,COc1ccccc1N1CCN(/N=C/c2cc([N+](=O)[O-])ccc2Cl)CC1,active: 7.94 µM
24,CN1CCN(c2nc(-c3cc4ccccc4o3)cs2)CC1,"inconclusive: 79.4 µM [inhibitor, single point]"
25,N#CC(C#N)=C1C=CC=CN1/C(=C\c1ccco1)C(=O)c1ccccc1,inactive
